The text below walks through data of paper PMC6164334, “Structural Features of Amyloid Fibrils Formed from the Full-Length and Truncated Forms of Beta-2-Microglobulin Probed by Fluorescent Dye Thioflavin T” (International Journal of Molecular Sciences, 2018).

The data set deals with the molecule itself. As to the kind of experiment: amyloid fibril formation (negative-stain electron microscopy, far-UV CD, ThT fluorescence); purified protein at 30 μkM in Gly-HCl buffer pH 2.5, 37 °C, constant agitation (500 rpm) for 14 days.

B1: ΔN6β2m, β2M truncated form that lacks the 6 N-terminal amino acids of the polypeptide chain (domain or fragment)
chain: not shown
notes: added methionine as first N-terminal amino acid; beta-2-microglobulin, human, without the 6 N-terminal amino acids of the 99-residue chain; numbers count on: the mature protein; Limits […] follow from 'lacks the 6 N-terminal amino acids' of the 99-residue protein and from the peptide MIQVYSR
On to B1, for which the binding result was “binds”.

B2: ΔN10β2m, β2M truncated form that lacks the 10 N-terminal amino acids of the polypeptide chain (domain or fragment)
chain: not shown
notes: added methionine as first N-terminal amino acid, by the methods; the tryptic peptide MSR was not reliably detected; beta-2-microglobulin, human, without the 10 N-terminal amino acids of the 99-residue chain (Tyr10 is lost); numbers count on: the mature protein; Limits […] follow from 'lacks the 10 N-terminal amino acids' of the 99-residue protein
As for B2, the binding result was “binds”.
